The record followed here is patent publication US20250361279A1 (Hoffmann-La Roche, published 2025).

Like-named read-outs stand apart in the source and are kept apart here.

The target of assay [1] is T1, IL-7 receptor (IL-7R alpha chain and common gamma chain) on human T cells (human, UniProt P16871 21-459; P31785 23-369).
T1 sequence (looked up) 1: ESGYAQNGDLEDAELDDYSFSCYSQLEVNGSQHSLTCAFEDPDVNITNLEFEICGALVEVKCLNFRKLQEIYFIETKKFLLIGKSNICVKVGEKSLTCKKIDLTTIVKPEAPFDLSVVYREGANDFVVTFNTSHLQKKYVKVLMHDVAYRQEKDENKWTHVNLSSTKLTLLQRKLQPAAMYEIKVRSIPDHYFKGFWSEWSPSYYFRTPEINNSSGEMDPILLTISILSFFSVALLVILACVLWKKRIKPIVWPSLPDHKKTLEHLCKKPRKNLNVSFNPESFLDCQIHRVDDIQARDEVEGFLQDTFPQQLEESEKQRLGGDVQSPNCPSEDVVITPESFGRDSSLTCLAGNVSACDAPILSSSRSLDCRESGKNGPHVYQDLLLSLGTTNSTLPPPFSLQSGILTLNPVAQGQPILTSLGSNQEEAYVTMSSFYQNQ
T1 sequence (looked up) 2: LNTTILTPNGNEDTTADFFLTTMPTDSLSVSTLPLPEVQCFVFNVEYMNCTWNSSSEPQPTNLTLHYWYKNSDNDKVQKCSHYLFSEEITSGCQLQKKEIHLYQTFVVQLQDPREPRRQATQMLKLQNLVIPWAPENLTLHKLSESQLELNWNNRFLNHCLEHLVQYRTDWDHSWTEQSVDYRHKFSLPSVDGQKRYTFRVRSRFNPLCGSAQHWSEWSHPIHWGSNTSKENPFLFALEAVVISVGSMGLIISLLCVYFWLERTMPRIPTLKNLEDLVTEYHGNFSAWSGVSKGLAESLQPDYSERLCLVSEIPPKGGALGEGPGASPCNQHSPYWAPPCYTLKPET
The experiment in a line: cell-based or functional assay.

The target of assay [2] is T2, human PD-1 on activated CD4 T cells (human, UniProt Q15116 25-288). The experiment in a line: cell-based or functional assay.
Assay [3] has as its target T1, IL-7 receptor (IL-7R alpha chain and …). The experiment in a line: cell-based or functional assay. The source holds these as a separate data set.
Assay [4] has as its target T2, human PD-1 on activated CD4 T cells. The experiment in a line: cell-based or functional assay. This is another data set of the same source.
Assay [5] has as its target T1, IL-7 receptor (IL-7R alpha chain and …). Put plainly: cell-based or functional assay. The source holds these as a separate data set.
Assay [6] has the same target. Put plainly: flow cytometry, fresh PBMCs, bystander (PD-1- TCF-1-) CD4 T cells. Also on record: unit not given beside the values. In general terms: A flow cytometer gives signals particle by particle.
Assay [7] shares this target. The experiment in a line: flow cytometry, fresh PBMCs, bystander (PD-1- TCF-1-) CD8 T cells. Also on record: unit not given beside the values.
The target in assay [8] is T3, human huPD1-ECD_Fc (P1AD9704) (human, UniProt Q15116 partial chain).
T3 construct: extracellular domain; In-house reagent; not shown: Fc part
The experiment in a line: SPR Biacore T200, sample captured by anti-PGLALA, huPD1-ECD-Fc injected; sample stressed 2 w/pH 7.4 +37°C. (Surface plasmon resonance follows binding to a sensor surface in real time, without labels.)

B1: P1AI5587 (PD1-IL7v2.6, fully glycosylated; de-risked PD1 binder FV020519; IL7 E13K, G85E; (G2SG2)3 linker) (other)
light: DIVMTQSPDSLAVSLGERATINCKASESVDTSDNSFIHWYQQKPGQSPKLLIYRASTLESGVPDRFSGSGSGTDFTLTISSLQAEDVAVYYCQQNYDVPWTFGQGTKVEIKRTVAAPSVFIFPPSDEQLKSGTASVVCLLNNFYPREAKVQWKVDNALQSGNSQESVTEQDSKDSTYSLSSTLTLSKADYEKHKVYACEVTHQGLSSPVTKSFNRGEC
heavy 1: EVQLLESGGGLVQPGGSLRLSCAASGFSFSSYTMSWVRQAPGKGLEWVSAISGGGRDIYYPDSVKGRFTISRDNSKNTLYLQMNSLRAEDTAVYYCVLLTGRVYFALDSWGQGTLVTVSSASTKGPSVFPLAPSSKSTSGGTAALGCLVKDYFPEPVTVSWNSGALTSGVHTFPAVLQSSGLYSLSSVVTVPSSSLGTQTYICNVNHKPSNTKVDKKVEPKSCDKTHTCPPCPAPEAAGGPSVFLFPPKPKDTLMISRTPEVTCVVVDVSHEDPEVKFNWYVDGVEVHNAKTKPREEQYNSTYRVVSVLTVLHQDWLNGKEYKCKVSNKALGAPIEKTISKAKGQPREPQVCTLPPSRDELTKNQVSLSCAVKGFYPSDIAVEWESNGQPENNYKTTPPVLDSDGSFFLVSKLTVDKSRWQQGNVFSCSVMHEALHNHYTQKSLSLSPG
heavy 2: EVQLLESGGGLVQPGGSLRLSCAASGFSFSSYTMSWVRQAPGKGLEWVSAISGGGRDIYYPDSVKGRFTISRDNSKNTLYLQMNSLRAEDTAVYYCVLLTGRVYFALDSWGQGTLVTVSSASTKGPSVFPLAPSSKSTSGGTAALGCLVKDYFPEPVTVSWNSGALTSGVHTFPAVLQSSGLYSLSSVVTVPSSSLGTQTYICNVNHKPSNTKVDKKV[sequence of human IgG1 Fc with changes omitted]GGSGGGGSGGGGSGGDCDIEGKDGKQYKSVLMVSIDQLLDSMKEIGSNCLNNEFNFFKRHICDANKEGMFLFRAARKLRQFLKMNSTGDFDLHLLKVSEETTILLNCTGQVKGRKPAALGEAQPTKSLEENKSLKEQKKLNDLCFLKRLLQEIKTCWNKILMGTKEH
notes: Immunoconjugate: anti-PD-1 IgG1 (FV020519), knob-into-hole, PGLALA; IL-7 variant fused to the C-terminus of the knob heavy chain; Several batches of the same construct were tested; the batch is named in the rows; also called P1AI5587-007 (transient); P1AI5587-270 (transient)
Consider B1, for which the “Potency reduction to PD1-IL7wt: EC50 (PD1+)/EC50 (PD1-IL7wt) (batch P1AI5587-007)” value turned out to be 2.6 fold in assay [1] and 5.8 fold in assay [3]. Also, the “Cis-delivery: fold increase in EC50, EC50 [with PD1bl]/EC50 [no PD1bl] (batch P1AI5587-007)” value in assay [2] was 59.6 fold; in assay [4], 19.5 fold. Further, the “EC50[active]/EC50 [active PD1-IL7wt] (batch P1AI5587-468)” value in assay [5] is 8.3 fold. For the same molecule, in assay [5], the “EC50[fresh]/EC50 [fresh PD1-IL7wt] (batch P1AI5587-468)” value stood at 682 fold. The “AUC of dose-response binding (frequency of anti-PGLALA+ cells)” value was determined as 9.8 in assay [6] and 37.9 in assay [7]. Also, in assay [8], the “Relative Active Concentration (RAC), binding relative to the non-stressed sample” value is 114%.
